In all, about 33,000 sequences were measured (“E-score (-0.5 to 0.5)”: median about -0.013, highest 2% from about 0.3 on). The list shows a part of the results.
target: T1, Msn1 (UniProt P22148); assay: PBM E-score (8-mer binding enrichment) (E-score (-0.5 to 0.5)); higher = stronger / more preferred TF binding; most listed sequences are background and not binding sites; settings: protein concentration: 200 nM; construct: GST-full length
T1 sequence: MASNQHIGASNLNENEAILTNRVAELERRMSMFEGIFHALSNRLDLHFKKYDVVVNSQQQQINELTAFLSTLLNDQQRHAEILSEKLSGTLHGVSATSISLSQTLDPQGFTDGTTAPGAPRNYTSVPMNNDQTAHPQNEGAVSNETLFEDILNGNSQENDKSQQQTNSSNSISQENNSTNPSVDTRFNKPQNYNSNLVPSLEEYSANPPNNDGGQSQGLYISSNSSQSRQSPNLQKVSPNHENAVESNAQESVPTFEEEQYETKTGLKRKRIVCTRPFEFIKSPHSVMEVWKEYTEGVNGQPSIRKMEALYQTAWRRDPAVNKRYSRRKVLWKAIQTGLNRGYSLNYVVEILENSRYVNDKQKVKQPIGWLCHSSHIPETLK
Method in brief: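 Yeast transcription factors, full-length or as DNA-binding domains, were expressed with a GST tag using PURExpress in vitro transcription/translation. At about 100-200 nM they were applied to universal all-10-mer Agilent arrays, double-stranded by primer extension on fresh or once-stripped slides. Fluorescent anti-GST detected bound protein, and masliner normalised the scans. E-scores for ungapped eight-base words, pooled with reverse complements, came from the Universal PBM Analysis Suite.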

Sequence	PBM E-score
GATATGCA	-0.00613
ACGGATCC	-0.0588
ATGATCGA	-0.146
AGGGTACC	-0.155
GCGACATA	0.299
GTGCAACA	-0.164
TACCCTAA	-0.0527
AGGTTTAT	0.0341
GTGTGATA	0.00765
CACTTACC	-0.0507
GAAGTAAC	-0.0192
TGCCATAA	0.117
CGGGGAAA	0.163
CCTGTGCG	-0.063
CAACTTAA	0.0732
CGATGTTA	0.183
AGTAGAAA	0.176
TACACACA	0.0752
CTAACAAA	0.141
GTGCATGA	0.0762
CGTCGATC	-0.0653
CTCATCGC	-0.0785
ACCATAGA	-0.0272
AACCAGTA	0.0688
GTAACAAC	0.103

Sequence	PBM E-score
AAGTCTTA	0.183
GGCGTGCA	-0.255
GCTAACAA	-0.0553
AAACTGAT	0.0852
CTCAGTTC	-0.0161
GCCTACCA	-0.174
CACACCTG	-0.201
ATAATGAG	0.134
AGGCACGG	-0.0786
ATCTGTCG	0.0829
CCATGCTA	-0.215
ATCCCTTA	-0.0284
TCTTCAAA	0.125
AGATTGAT	-0.156
GCATAGTA	0.032
AAGACGTG	0.0634
CATGTTGA	0.17
GCCGTCTA	-0.147
CGCACTCC	-0.162
AATTTTTC	0.153
ACCCGAAT	0.0463
CTGATAAC	0.0212
ATCTAAAA	0.0306
AACGGACA	0.344
AGGCGTAC	-0.0847

Sequence	PBM E-score
ACGGAGCC	-0.0946
CCTAATGC	-0.156
ACTGACTG	-0.124
TAATACTA	0.265
ATCCGCAC	-0.0511
CCATAAAG	-0.162
AGACGCAT	0.00572
ATCTTGCC	0.0575
GGATACAC	-0.185
CACAATCA	-0.0148
ACCTCGGC	0.053
ACAGTGCC	0.063
ACTTGTAG	0.0691
GACTTAGC	-0.135
TCCTCGAA	-0.00304
GAAAATTC	0.116
CGTAAGGC	-0.147
CTAGTTTC	0.151
GAACCGCC	-0.0164
TCCCCGGA	-0.0783
CGTTCGCC	-0.0525
CAGGGGAA	-0.176
CTACACCC	-0.145
CGGTCGCC	-0.118
GCGGCCAC	-0.316

Sequence	PBM E-score
TCGCACCA	-0.0732
CGCACGGA	0.0118
GAGATTAC	-0.189
GACGAAGA	-0.00478
ATAATTGA	0.266
TAGTGCGA	0.055
CCCTCGCG	-0.0601
TAGCTTGA	-0.246
CGTGTAAC	-0.0578
ATCCCTCC	-0.103
ACCACACT	0.0253
TTACCCAA	0.0979
CGGTATCC	-0.224
CTGAGGGC	-0.258
ATAAATAT	0.277
ATAGGAGG	-0.228
TGGAATAA	-0.0907
AGTGAGAA	0.00917
GCTCGCTA	-0.0896
AGTACCAT	0.0374
AGCGCGCG	0.138
AATTCACT	0.0912
ATCCTCAC	-0.0537
ATTGAAGA	0.0927
ACAGTCCT	-0.0913

Sequence	PBM E-score
AAACCTCG	-0.0494
CAGACATG	0.26
AGCTACCC	-0.122
ATTATGCC	0.0513
ACAACCGA	0.0724
CGACCGTC	-0.159
AACGAGCT	-0.0712
AAACCTTC	-0.288
CCTCAGCG	-0.05
GATTGTTA	0.0224
CCAGTAGC	-0.0202
ATGAACTG	0.0956
AGTGGAAG	-0.369
CCCGACTC	-0.0419
CGATCCGA	0.131
CTGCGCAA	0.137
CAAAACAC	0.0974
TAACTACA	0.132
CACCCTCC	-0.293
CTGTATGA	0.0183
ACGTAGAG	-0.164
ACCATTCT	-0.0554
GACAGGAA	0.323
CACCCTGA	-0.196
ACTCCCAC	-0.319

Sequence	PBM E-score
GATGGCCA	0.00559
GTGCGTTA	0.084
TGATACAA	0.123
GTCAACGA	0.0877
CGACCTGC	-0.131
CGATGTGC	-0.0598
CAGTGTGA	-0.0287
ATCAAGAA	0.0962
AGTATCCA	0.0161
ACCCCTAT	-0.242
AAGATGAA	-0.00389
ATGCCTAG	-0.0824
CAACCTCC	-0.288
TGATTACA	0.125
AGCTACTG	-0.095
TAACGCCA	-0.162
AATAAAGT	0.209
AGAGAATG	0.186
GCTATGCC	-0.262
CCCTGCTA	-0.2
TCTATCAA	0.0807
CGTGTGGC	-0.0764
AGTCATGG	0.00853
ACTACCAG	-0.271
CTCACACC	-0.206

Sequence	PBM E-score
ATGTCCTC	0.481
CATTGGTA	0.122
CGCCTATC	-0.0603
GCTCTTGA	-0.0882
ATCGCCAA	-0.0861
GGGTCGCA	-0.107
ACCATGCG	0.0418
CGCATCCG	-0.0959
AGATTTGC	0.0653
ATCCATTA	0.0133
ATACATCG	0.157
AACGCATG	-0.0312
ACGACTAG	0.1
CACGACGC	-0.166
CATGGCGC	-0.0795
ACGGGGCG	-0.0524
CGCCCGCC	-0.158
ATACAATC	-0.0273
AAACTCCA	-0.129
AACAAGTT	0.0509
AGTGCAGA	-0.0866
AAAACCGC	-0.0566
